In PMC5700166:
Only a part is listed here, and it is no random draw. The list includes weakly bound sequences.

Key:
Assay in all cases: protein-binding microarray (PBM)
Details in all cases: PBM: ~300 nM protein, 6 mM HEPES pH 7.8, 80 mM KCl, 0.5 mM EDTA, 0.5 mM EGTA, 6% glycerol, 35 ng/ul poly-dIdC, 1% milk, 1 h, room temperature; Ap Aiptasia and Nv Nematostella (sea anemones) / Co Capsaspora / Aq Amphimedon (sponge) / Dm Drosophila / Hu human; RHD is the Rel homology domain; high values mean tight binding; most listed sequences are background and not binding sites; double strand, one strand shown
GST-Ap-NF-kB RHD = molecular target: T1, GST-Ap-NF-kB RHD (UniProt A0A913YAJ5)
T1 sequence: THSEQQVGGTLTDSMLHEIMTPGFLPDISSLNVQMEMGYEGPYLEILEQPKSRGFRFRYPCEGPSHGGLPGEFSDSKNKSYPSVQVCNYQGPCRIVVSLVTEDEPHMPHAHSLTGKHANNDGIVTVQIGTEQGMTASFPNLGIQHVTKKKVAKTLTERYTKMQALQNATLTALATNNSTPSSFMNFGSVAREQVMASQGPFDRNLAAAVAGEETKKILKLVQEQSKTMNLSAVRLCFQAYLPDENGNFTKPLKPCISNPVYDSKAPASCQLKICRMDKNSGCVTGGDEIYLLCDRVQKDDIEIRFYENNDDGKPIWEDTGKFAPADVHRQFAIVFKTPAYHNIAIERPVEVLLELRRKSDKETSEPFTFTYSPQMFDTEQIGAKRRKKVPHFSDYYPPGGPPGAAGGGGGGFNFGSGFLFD

[1] = molecular target: T2, GST-Nv-NF-kB (Cys allele) (UniProt E5G601)
T2 sequence: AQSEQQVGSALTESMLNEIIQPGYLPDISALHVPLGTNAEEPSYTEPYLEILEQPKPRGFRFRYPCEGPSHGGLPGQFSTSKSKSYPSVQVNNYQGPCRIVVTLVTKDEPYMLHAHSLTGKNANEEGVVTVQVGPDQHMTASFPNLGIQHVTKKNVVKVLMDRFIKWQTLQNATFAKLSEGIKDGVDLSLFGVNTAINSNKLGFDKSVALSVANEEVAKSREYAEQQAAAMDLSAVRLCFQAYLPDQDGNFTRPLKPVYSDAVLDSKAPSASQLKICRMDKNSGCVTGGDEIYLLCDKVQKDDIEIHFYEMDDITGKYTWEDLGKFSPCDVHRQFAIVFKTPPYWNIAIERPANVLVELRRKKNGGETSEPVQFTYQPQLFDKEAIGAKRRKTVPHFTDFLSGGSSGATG

GST-Dm-Relish = molecular target: T3, GST-Dm-Relish (UniProt Q94527)
T3 sequence: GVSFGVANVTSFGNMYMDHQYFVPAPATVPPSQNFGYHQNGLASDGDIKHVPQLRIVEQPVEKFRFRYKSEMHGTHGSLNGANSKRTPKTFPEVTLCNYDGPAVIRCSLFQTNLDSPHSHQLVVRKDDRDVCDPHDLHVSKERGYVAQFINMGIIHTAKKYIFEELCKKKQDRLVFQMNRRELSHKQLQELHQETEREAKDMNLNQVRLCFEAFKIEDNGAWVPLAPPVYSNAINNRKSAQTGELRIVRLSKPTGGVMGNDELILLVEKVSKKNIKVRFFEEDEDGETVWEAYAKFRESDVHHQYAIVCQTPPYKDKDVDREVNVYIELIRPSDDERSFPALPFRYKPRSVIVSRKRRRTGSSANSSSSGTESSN

GST-Co-NF-kB = molecular target: T4, GST-Co-NF-kB (UniProt F1ARL5)
T4 sequence: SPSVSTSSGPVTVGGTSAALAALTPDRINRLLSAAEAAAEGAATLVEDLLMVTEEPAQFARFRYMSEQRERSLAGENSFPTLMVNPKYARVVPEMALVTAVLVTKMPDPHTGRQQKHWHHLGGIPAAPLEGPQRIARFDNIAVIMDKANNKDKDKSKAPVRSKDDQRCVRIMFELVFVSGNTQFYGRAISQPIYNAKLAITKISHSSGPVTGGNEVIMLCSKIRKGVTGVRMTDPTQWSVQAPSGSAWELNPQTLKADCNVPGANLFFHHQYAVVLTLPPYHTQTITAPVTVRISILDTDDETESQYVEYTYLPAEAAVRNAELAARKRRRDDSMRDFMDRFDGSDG

Sequence	binding signal (GST-Ap-NF-kB RHD) [z-score]	binding signal [1] [z-score]	binding signal (GST-Dm-Relish) [z-score]	binding signal (GST-Co-NF-kB) [z-score]
CCGATTAACATCAATTACCCCCCTGATGTTAATCGGGTCTTGATTCGCTTGACGCTGCTG	5.96	4.69	4.49	–
CCGATTAACATCACTAAAATTCCTGATGTTAATCGGGTCTTGATTCGCTTGACGCTGCTG	0.381	0.28	0.634	0.642
CCGATTAACATCAAATTCCCAGTTGATGTTAATCGGGTCTTGATTCGCTTGACGCTGCTG	1.52	3.74	4.29	–
CCGATTAACATCAGGGGAATTAATGATGTTAATCGGGTCTTGATTCGCTTGACGCTGCTG	6.97	9.44	7.21	–
CCGATTAACATCACGGGGAATTCTGATGTTAATCGGGTCTTGATTCGCTTGACGCTGCTG	9.62	10.1	8.15	–
CCGATTAACATCAGGACTCTCCCTGATGTTAATCGGGTCTTGATTCGCTTGACGCTGCTG	3.59	5.02	2.07	–
CCGATTAACATCATTTATCCCGGTGATGTTAATCGGGTCTTGATTCGCTTGACGCTGCTG	1.16	0.544	1.77	–
CCGATTAACATCAGAATTTCCCCTGATGTTAATCGGGTCTTGATTCGCTTGACGCTGCTG	9.18	10.1	6.98	–
CCGATTAACATCACAAATGGGAATGATGTTAATCGGGTCTTGATTCGCTTGACGCTGCTG	0.21	1.95	1.56	–
CCGATTAACATCAAGGGGATTCCTGATGTTAATCGGGTCTTGATTCGCTTGACGCTGCTG	10.4	10.4	9.9	–
CCGATTAACATCAAAAGTTTCCCTGATGTTAATCGGGTCTTGATTCGCTTGACGCTGCTG	5.05	7.19	4.85	–
CCGATTAACATCAAGGGATTCCCTGATGTTAATCGGGTCTTGATTCGCTTGACGCTGCTG	6.28	5.98	9.45	–
CCGATTAACATCAGACTTTTCCCTGATGTTAATCGGGTCTTGATTCGCTTGACGCTGCTG	2.88	4.94	1.62	–
CCGATTAACATCAGGGGGTTCCATGATGTTAATCGGGTCTTGATTCGCTTGACGCTGCTG	7.79	5.3	9.47	–
CCGATTAACATCAAAGTGGGAAATGATGTTAATCGGGTCTTGATTCGCTTGACGCTGCTG	0.944	3.3	0.647	2.54
CCGATTAACATCAGGGAAAGGTATGATGTTAATCGGGTCTTGATTCGCTTGACGCTGCTG	2.16	3.44	0.32	–

Sequence	binding signal (GST-Ap-NF-kB RHD) [z-score]	binding signal [1] [z-score]	binding signal (GST-Dm-Relish) [z-score]	binding signal (GST-Co-NF-kB) [z-score]
CCGATTAACATCAGGTAACTACCTGATGTTAATCGGGTCTTGATTCGCTTGACGCTGCTG	0.541	0.779	3.08	-1.13
CCGATTAACATCAGGGGTACACATGATGTTAATCGGGTCTTGATTCGCTTGACGCTGCTG	1.77	0.248	1.13	–
CCGATTAACATCAGGATACCCCCTGATGTTAATCGGGTCTTGATTCGCTTGACGCTGCTG	7.7	4.68	5.79	–
CCGATTAACATCAAAATTCCGGGTGATGTTAATCGGGTCTTGATTCGCTTGACGCTGCTG	0.764	0.996	1.53	–
CCGATTAACATCAGACATTCCCCTGATGTTAATCGGGTCTTGATTCGCTTGACGCTGCTG	7.03	–	–	5.38
CCGATTAACATCAGGGAATGTACTGATGTTAATCGGGTCTTGATTCGCTTGACGCTGCTG	2.21	–	–	2.29
CCGATTAACATCAACCATGGGAATGATGTTAATCGGGTCTTGATTCGCTTGACGCTGCTG	0.797	1.18	0.454	–
CCGATTAACATCAACGTGGGGCGTGATGTTAATCGGGTCTTGATTCGCTTGACGCTGCTG	1.07	1.14	0.648	–
CCGATTAACATCAAATTTCCGGGTGATGTTAATCGGGTCTTGATTCGCTTGACGCTGCTG	0.808	-0.125	0.816	–
CCGATTAACATCACTCTTTTCCCTGATGTTAATCGGGTCTTGATTCGCTTGACGCTGCTG	2.32	3.09	0.511	–
CCGATTAACATCAGGGAAGTTTATGATGTTAATCGGGTCTTGATTCGCTTGACGCTGCTG	4.29	4.93	3.35	–
CCGATTAACATCAGGGGATTAAATGATGTTAATCGGGTCTTGATTCGCTTGACGCTGCTG	4.91	6.29	5.28	–
CCGATTAACATCAAAATTTTTCCTGATGTTAATCGGGTCTTGATTCGCTTGACGCTGCTG	0.427	0.935	2.86	–
CCGATTAACATCAAATTTCCCCCTGATGTTAATCGGGTCTTGATTCGCTTGACGCTGCTG	9.03	–	–	12.3
CCGATTAACATCAGGGTTAGTTGTGATGTTAATCGGGTCTTGATTCGCTTGACGCTGCTG	0.84	0.73	0.532	–
